Earlier results in article PMC12030314, “Biomarker-Driven Pharmacokinetics and Efficacy of Polymyxin B in Critically Ill Patients with XDR-GN Pneumonia” (Pharmaceuticals, 2025).

Details: Chinese critically ill patients, CRO nosocomial pneumonia; loading 100–200 mg, 40–100 mg every 12 h; population PK model; ref Zhang et al., 2023 [60]; cited from earlier work
Description: Table A1 Published PMB PK/PD studies. | […] . […] In studies of noncritically ill patients, the Vd reported in non-Asian patie ...

In the case of `CC[C@H](C)CCCCC(=O)N[C@@H](CCN)C(=O)N[C@H](C(=O)N[C@@H](CCN)C(=O)N[C@H]1CCNC(=O)[C@H]([C@@H](C)O)NC(=O)[C@H](CCN)NC(=O)[C@H](CCN)NC(=O)[C@H](CC(C)C)NC(=O)[C@@H](Cc2ccccc2)NC(=O)[C@H](CCN)NC1=O)[C@@H](C)O` [PMB, polymyxin B] (X1-[Dab]T[Dab][Dab][Dab][dF]L[Dab][Dab]T; lactam 4-C), the CL is listed as 1.56 L/h.

Where a SMILES comes first, the peptide text is derived from it. Bridges are numbered along the chain shown (N, C = ends). [ ]: non-standard residue; d: D form. The star is where a group is joined. X1 = CC[C@H](C)CCCCC(=O)*; Dab = NCC[C@H](N)C(=O)O
